For 126 compounds, Inhibition % results are on record in PMC9574860, “Chemical Toolkit for PARK7: Potent, Selective, and High-Throughput” (Journal of Medicinal Chemistry, 2022).

The structures appear in SMILES notation. Screen size: about 7,900 compounds; about 400 (5.1%) showed an effect of 50% or more. The list shows a part of the results.

Parkinson's disease protein 7 (PARK7/DJ1), sequence (Q99497 whole entry, looked up, the tested form may be a part): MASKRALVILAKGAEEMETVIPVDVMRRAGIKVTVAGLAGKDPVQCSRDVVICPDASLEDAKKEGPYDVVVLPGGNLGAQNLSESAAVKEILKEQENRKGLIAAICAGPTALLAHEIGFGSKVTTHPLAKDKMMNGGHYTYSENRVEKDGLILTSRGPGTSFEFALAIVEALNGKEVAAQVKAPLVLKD

In the test the target is Parkinson's disease protein 7 (PARK7/DJ1) (human, UniProt Q99497). The experiment in a line: primary screen, percent inhibition; read as competition with a fluorescent probe by fluorescence polarization; higher = more effect of the substance. The note with it: 100 µM. Summed up:
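Covalent fragments at 100 μM final were incubated 2 h with 0.2 μM PARK7, then 20 nM probe JYQ-107 added for a further 2 h. Fluorescence polarization read at 480/520 nm; relative FP loss versus reference controls gave remaining enzyme activity.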
`C=CC(=O)N1CCC(C)(C)c2ccccc21`: the Inhibition % is -0.137%.
The value for `CNC(=O)c1ccc(NC(=O)CCl)cc1` was 16.6%; that for `Cc1ccc(C=CC(=O)N2CCN(c3nccs3)CC2)o1` was 5.55%.
The value for `CC1CCC(NC(=O)Cn2cnc(C#N)n2)CC1` (stereo not drawn) was 6.94%; that for `O=C(CCl)Nc1cccc2c1N=S=N2` was 24.9%.
The value for `N#Cc1cnc(NCC(F)F)cn1` was 4%.
For the compound `O=C(CO)NC1CN(c2ccc(F)cc2)C1=O` (stereo not drawn), the Inhibition % amounted to 5.55%.
`C=CC(=O)N1CCCC1c1nccs1` (stereo not drawn): the Inhibition % was determined as 10%.
As for `O=S1(=O)CC=C(Cl)C1`, the Inhibition % came to 3.43%.
Regarding `C=CC(=O)NC1(COC)CCOCC1`, the Inhibition % is listed as 11.5%.
The value for `CC(C)(C)OC(=O)c1cc2ccc(B3OC(C)(C)C(C)(C)O3)cc2[nH]1` was 7.8%; that for `C=CC(=O)N1CCCc2ccccc2C1` was 10.7%.
Consider `COc1cc(NC(=O)CCl)c(C)cc1[N+](=O)[O-]`, for which the Inhibition % is 5.4%.
For `C=CC(=O)NCc1cscn1`, the Inhibition % was found to be 4.74%.
In the case of `COCCNC(=O)C(C#N)=Cc1sccc1C`, the Inhibition % is given as 3.38%.
The value for `OCC1(CC2CO2)CCCC1` (stereo not drawn) was 16.1%.
Then `C=CC(=O)NCc1c(C)oc2ccccc12`, with 10.7%; and `C=CC(=O)NC1CCC(F)C1` (stereo not drawn), with 9.01%.
Then `N#Cc1nccc2c1CCCC2`, with 6.94%; and `Cn1nc(-c2ccc(F)cc2)oc1=O`, with -2.46%.
Turning to `Cc1ccc(C#N)nc1N1CCCOC(C)C1` (stereo not drawn), the Inhibition % is given as 42.8%.
As for `COc1cc(C)c(C(C)C)cc1S(=O)(=O)n1cnc(C)c1`, the Inhibition % is 11.1%.
Then `COC(=O)c1c(NC(=O)CCl)sc2c1CCCCC2`, with 8.32%; and `COC(=O)C1CC(=CB2OC(C)(C)C(C)(C)O2)C1` (stereo not drawn), with 29.2%; and `CCOc1ccc(C)cc1S(=O)(=O)n1nc(C)cc1C`, with 2.18%.
As to `NC(=O)C1CCCC1NS(=O)(=O)C=Cc1ccccc1` (stereo not drawn), the Inhibition % amounted to 4.03%.
Then `C=CC(=O)N[C@@H]1CCC(=O)N[C@H]1C(C)(C)C`, with 6.16%; and `Cc1cc(C)n(S(=O)(=O)c2ccc(F)c(C)c2)n1`, with 6.78%; and `C=CC(=O)N(C)C1CCC(C(C)C)CC1` (stereo not drawn), with 7.85%.
Turning to `Cn1cnc(C=C(C#N)C(=O)NCCc2ccccc2)c1`, the Inhibition % was 2.37%.
Then `C=CC(=O)N1CCCC1c1ncccn1` (stereo not drawn), with 10.5%.
Turning to `O=c1[nH]c(-c2cccnc2)no1`, the Inhibition % is reported as 12.5%.
The value for `O=C1CCSC(=O)N1` was 4.69%.
For the compound `C=CC(=O)Nc1ccc2ccc(=O)n(C)c2c1`, the Inhibition % is listed as 7.33%.
The value for `Cc1ccc2cccc(OC(=O)N3CCCC3)c2n1` was 13.5%; that for `O=C(CCl)NCCCN1CCCC1=O` was 3.35%; that for `N#Cc1cccc(NC(=O)CN2CCSC2=O)c1` was 9.19%.
The value for `Cc1ccc(F)c(NC(=O)CN2CCSC2=O)c1` was 5.37%; that for `O=C(Nc1cccc(S(=O)(=O)F)c1)C1(CF)CCOCC1` was 95.3%.
Consider `CN(CC(F)F)S(=O)(=O)c1cccnc1C#N`, for which the Inhibition % came out at 5.21%.
As for `C=CC(=O)NC12CCC(F)(CC1)CC2`, the Inhibition % is reported as 9.53%.
The value for `CC1(C)OB(C=C2CCOCC2)OC1(C)C` was 9.49%.
Then `Cc1ccc(OCCCn2cnc(C#N)n2)cc1C`, with 3.96%; and `C=CC(=O)N1CCC(c2nnc3n2CCC3)CC1`, with 7.52%.
For `CN(C)c1ccc(C=C(C#N)C(=O)Nc2nccs2)cc1`, the Inhibition % is 10.4%.
The value for `Cc1cccc(Cc2cnc(NC(=O)CCl)s2)c1` was 41%; that for `C=CC(=O)N1CCN(CC)C(=O)C1CC` (stereo not drawn) was 7.08%; that for `CC1CC(N2CCCc3ccccc32)C(=O)O1` (stereo not drawn) was 12.8%.
Take `COC[C@@H]1C[C@@H](OC)CN1C(=O)c1c[nH]c(C#N)c1`: the Inhibition % amounted to 6.56%.
Then `C=C(C)c1nc(C#N)c(N2CCC(C(N)=O)CC2)o1`, with 6.94%; and `C=CC(=O)N1CC[C@@H]2COC(=O)N[C@H]2C1`, with 8.41%; and `Cn1cc(OS(=O)(=O)c2cn(C)c(Cl)n2)cn1`, with 15.9%.
Turning to `Clc1ccccc1CN1CCC(C2OCCO2)CC1`, the Inhibition % was found to be 6.11%.
With `Cc1cc2c(=S)nc[nH]c2s1`, the Inhibition % turned out to be 28.3%.
Consider `CNCc1cc(B2OC(C)(C)C(C)(C)O2)co1.Cl`, for which the Inhibition % is recorded as 9.09%.
The value for `CN(CC1(O)CCCC1)C(=O)c1cccnc1S` was 5.79%; that for `C=CC(=O)NC1CCN(C(=O)c2ccccc2F)CC1` was 10.3%; that for `C=CC(=O)N[C@H]1CCO[C@@H]1c1nccn1CC` was 11.3%.
The value for `O=C(CCl)NC(=O)c1cccc([N+](=O)[O-])c1` was 31.5%.
In the case of `C=CC(=O)N1CCCCC1c1nc(COC)n[nH]1` (stereo not drawn), the Inhibition % was 5.76%.
The value for `C=CC(=O)NC(C)C(=O)N1CCCCC1C` (stereo not drawn) was -0.998%; that for `Cc1csc(C#N)n1` was 5.21%.
Then `SCc1cccnc1`, with 16.8%; and `C=CC(=O)Nc1ccc(OCC)c(OC)c1`, with 12.4%.
The value for `C=CC(=O)N1CCC[C@H]1C(=O)NC` was 4.18%; that for `CN(Cc1cccc(B(O)O)c1)c1ccccc1.Cl` was 8.29%.
`C=CC(=O)N1CCOc2c(F)ccc(F)c21`: the Inhibition % was determined as 9%.
Consider `Cc1cccc(Cn2cnc(C#N)n2)c1`, for which the Inhibition % is recorded as 4.04%.
Then `CN(C)CCc1ccc(B(O)O)cc1.Cl`, with 2.57%; and `O=C(CCl)Nc1cccc(Cl)c1`, with 34.6%.
Then `C=CC(=O)N1CC2(CCOCC2)C1C1CC1` (stereo not drawn), with 9.93%; and `Cc1cc(NC(=O)CCl)n(-c2ccccc2)n1`, with 29.6%.
As to `Cl.N#Cc1cccc(N2CCNCC2)n1`, the Inhibition % was 13.3%.
The value for `O=C(O)c1cccc(N2C(=O)CCC2=O)c1` was 5.18%; that for `C=CC(=O)N1CC(c2cnn(C)c2)C2(CCOCC2)C1` (stereo not drawn) was 3.98%; that for `Cc1cccc(CNc2ccc(C)c(C#N)n2)n1` was 4.72%.
Then `C=CC(=O)N1CC(C)S(=O)(=O)C(C)C1` (stereo not drawn), with 5.08%.
With `CC1C(=O)N(CCS(=O)(=O)F)C(=O)N1c1ccccc1` (stereo not drawn), the Inhibition % came to 17.9%.
Then `C=CC(=O)N1CCC2(CCC2)S(=O)(=O)CC1`, with 8.9%; and `Cc1nn(C)c(Cl)c1C=CC(=O)N1CCC(CN)C1.Cl` (stereo not drawn), with 13.5%.
As to `CC1(C)OB(c2cccc(C3CC(F)(F)C3(F)F)c2)OC1(C)C` (stereo not drawn), the Inhibition % is on record as -0.414%.
With `C=CC(=O)N1CCN(S(C)(=O)=O)[C@@H](C)C1`, the Inhibition % is 8.8%.
The value for `C=CC(=O)Nc1nc(C)cc(C)n1` was -3.57%.
As for `Cn1c(S)nc2ccccc2c1=O`, the Inhibition % was determined as 3.7%.
For `N#Cc1ccc(CNC(=O)CCl)cc1`, the Inhibition % is given as 5.15%.
Then `CCN(Cc1ccc(Br)s1)C(=O)CCl`, with 12.9%; and `C=CC(=O)N1CCC(c2nc(C)c(C(=O)O)s2)CC1`, with 5.41%.
The value for `COC(=O)Cc1ccc(Oc2ccnc(C#N)c2)cc1` was 10.8%; that for `C=CC(=O)Nc1c(OC)ccc2c1CCC2` was 7.34%.
The value for `OB(O)c1cccc2c1OCCCO2` was 3.03%; that for `O=S(=O)(F)c1ccc(Nc2ccc(F)cc2)nc1` was 2.34%; that for `CN(CCC1CCOCC1)c1nc2ccccn2c1C#N` was 5.08%.
As for `C=CC(=O)NC(C)c1nc(Cc2ccccc2)no1` (stereo not drawn), the Inhibition % was found to be 4.55%.
`C=CC(=O)NC1CCN(c2cnn(C)c2)C1` (stereo not drawn): the Inhibition % is on record as 33.9%.
Then `CCn1cc(CCCl)cn1`, with 5.4%.
Take `N#Cc1cc(N2C[C@H](F)C[C@H]2C(N)=O)ccn1`: the Inhibition % worked out at 15.6%.
Then `CC1CC(N2CCCC(c3ccn[nH]3)C2)C(=O)O1` (stereo not drawn), with 1.38%.
The value for `O=C(CCl)N1N=C(c2cccs2)CC1c1cccs1` (stereo not drawn) was 0.318%; that for `C=CC(=O)N1CCCCC1CNC(C)=O` (stereo not drawn) was 3.47%; that for `N#Cc1nccc(NCC2CCSCC2)n1` was 5.26%.
With `CNC(=O)C(C#N)=Cc1cccc(C)c1C`, the Inhibition % was 7.91%.
The value for `C=CS(=O)(=O)c1ccc(C#N)c(C(F)(F)F)c1` was -2.38%; that for `N#Cc1ccc(N2CCC(Cc3ccccn3)CC2)cn1` was 8.15%.
On to `C#CC(=O)Nc1cnn(C2CCCCO2)c1` (stereo not drawn), for which the Inhibition % is given as 18.6%.
Then `C=CC(=O)NCC1(c2ccccc2F)CCC1`, with 5.16%; and `C=CC(=O)N1CCC(C(=O)[O-])CC1.[Na+]`, with 4.18%.
The value for `N#Cc1ncn(CC(=O)NC2CCCCC2)n1` was 5.82%; that for `O=C1CN(C(=O)C=Cc2cc3ccccc3o2)CCN1` was 5.86%; that for `Cc1ccc(N2C[C@H](F)C[C@H]2C(N)=O)nc1C#N` was 6.25%.
For the compound `N#CC1(CC2CO2)CCC1` (stereo not drawn), the Inhibition % stood at 3.78%.
Then `NC(=O)c1ccsc1NC(=O)CCl`, with 84.7%.
The value for `N#Cc1nccnc1N1CC2(CCC2)c2c(F)cccc21` was 9.34%; that for `COc1ccc(NC(=O)C(C#N)=Cc2ccco2)cc1` was 4.06%.
As to `O=C(CCl)Nc1nc(-c2cc3ccccc3o2)cs1`, the Inhibition % was 5.44%.
For `Cc1ccn(S(=O)(=O)c2cc(C)c(Cl)cc2C)n1`, the Inhibition % amounted to 5.92%.
On to `CCN(CC)C(=O)Oc1cccc(F)c1C#N`, for which the Inhibition % came out at 13.8%.
As for `O=C(C=Cc1ccccn1)N1CCCC(N2CCCC2)C1` (stereo not drawn), the Inhibition % is on record as 4.3%.
In the case of `CC(C)(CNC(=O)CCl)c1ccccc1`, the Inhibition % is recorded as 16.4%.
As to `CS(=O)(=O)Nc1ccc(B(O)O)cc1`, the Inhibition % is given as 9.91%.
The value for `C=CC(=O)NC1CC(=O)N(C(C)C)C1` (stereo not drawn) was 8.51%; that for `N#Cc1nc(N2CCCC2CO)ccc1Cl` (stereo not drawn) was 2.52%.
As for `CC1(C)SC(=O)NC1=O`, the Inhibition % came out at 13.1%.
The value for `Cn1cc(CN2CCC=C(F)C2)cc1C#N` was 13.5%; that for `N#Cc1c(Cl)nc2sccn12` was 4.22%.
`N#CC(=Cc1cnn(Cc2ccccc2)c1)C(=O)O`: the Inhibition % is on record as 4.92%.
As to `C=CC(=O)N[C@]1(C)C[C@H](C)CC(C)(C)C1`, the Inhibition % came to 9.09%.
